Test results from PubChem BioAssay AID463173 (ICCB-Longwood Screening Facility, Harvard Medical School, 2010).
In all, about 52,000 compounds went through this assay and about 4,300 (8.3%) were called active. Cut-off read from the data, not from the text of the source: active = survival mostly below about 52% (no sharp cut-off); inactive = mostly above about 56%. The list shows a part of the results.

The compounds below were run on DeltatarO mutant (assay: growth inhibition of S. aureus wild type versus tarO mutant, primary screen, teichoic acid synthesis inhibitors, RN4220, OD600 (AID 463173)). Settings: OD600, 18 h, stronger effect = lower value, screened at 18.75 µg/mL (by protocol).

| SMILES | survival |
| --- | --- |
| O=C(CSc1nccn1Cc1ccccc1)Nc1ccc2c(c1)OCO2 | inactive: 90% |
| CCOC(=O)N1CCC(NC(=O)c2ccc3c(c2)N(Cc2cc(C)ccc2C)C(=O)c2ccccc2S3=O)CC1 (stereo unspecified) | active: 42% |
| CCC(C)(C)NC(=O)Cn1c(=O)ccc2cc(S(=O)(=O)N3CCC(C)CC3)ccc21 | inactive: 92% |
| CCOc1ccc(OCC)c(Nc2cc(C)nc3nc(-c4ccco4)nn23)c1 | active: 17% |
| CC(=O)N1c2ccc(S(=O)(=O)N3CCCCCC3)cc2CC1C(=O)NCc1ccccc1F (stereo unspecified) | inactive: 119% |
| Cc1ccc(CNc2ccc(-c3nc(-c4ccccn4)no3)cc2[N+](=O)[O-])cc1 | inactive: 104% |
| O=C(c1ccc([N+](=O)[O-])cc1)N1CCN(c2ccc(Nc3ccccc3)nn2)CC1 | inactive: 83% |
| CCOc1ccc(CCNC(=O)CN2C(=O)c3cccnc3Oc3ccc(Cl)cc32)cc1 | inactive: 94% |
| CC(=O)Nc1nnc(SCc2cc(=O)c3cccc(Cl)c3[nH]2)s1 | inactive: 80% |
| CCOc1ccc(CCNC(=O)Cn2nnc(-c3ccc(C(F)(F)F)cc3)n2)cc1OCC | inactive: 82% |
| O=C1CC(=O)SC(c2ccccc2)=N1 | inactive: 96% |
| Cn1cc(CCCC(=O)NCc2ccccc2Cl)c2ccccc21 | inactive: 75% |
| CCOC(=O)c1c(NC(=O)CSc2nc(-c3ccccc3)cc(C(F)(F)F)n2)sc(C)c1C | inactive: 48% |
| O=C(CCC1CCCC1)NCc1ccccn1 | inactive: 88% |
| COc1ccc(OC)c(NC(=O)N2c3ccccc3Sc3ccccc32)c1 | active: 5% |
| Cc1ccc(OCc2nc(-c3ccc(C(=O)N4CCN(c5ccccc5)CC4)cc3)oc2C)cc1 | inactive: 80% |
| O=C(NCc1ccccc1Cl)c1ccc(Nc2nc3ccccc3n3nnnc23)cc1 | inactive: 84% |
| Cc1c(NC(=O)Nc2ccc(F)c(Cl)c2)c(=O)n(-c2ccccc2)n1C | inactive: 88% |
| Cc1nn(CCC(=O)N2CCN(c3ccccc3)CC2)c(C)c1S(=O)(=O)N1CCCC1 | active: -5% |
| CCc1cnc2c(c1SCC(=O)N1CCC(C)CC1)c(=O)n(C)c(=O)n2C | inactive: 92% |
| CCCCN(CCCC)CCNC(=O)c1cn(C)c2ccc(S(=O)(=O)N3CCCC3)cc2c1=O | inactive: 150% |
| CCOC(=O)c1c(S(=O)(=O)N2CCC(C(=O)Nc3ccc(OCC)cc3)CC2)c(C)n(C)c1C | inactive: 99% |
| CC1CCN(S(=O)(=O)c2ccc3nc(Nc4ccc(C#N)cc4)ccc3c2)CC1 | inactive: 86% |

| SMILES | survival |
| --- | --- |
| N#CC(C#N)=C(N1CCOCC1)C(F)(F)F | inactive: 98% |
| COc1cccc(CNC(=O)C2CCN(S(=O)(=O)N3CCC(C)CC3)CC2)c1 | inactive: 67% |
| COc1ccccc1CNS(=O)(=O)c1ccc(F)c(C(=O)Nc2cc(Cl)ccc2OC)c1 | inactive: 79% |
| O=C(NCC(c1cccnc1)N1CCc2ccccc2C1)C(=O)Nc1ccccc1 (stereo unspecified) | inactive: 81% |
| Cc1cccc(OCCSc2nc(-c3cccs3)nc3cc(=O)[nH]n23)c1 | inactive: 93% |
| COc1ccccc1N1CCN(S(=O)(=O)c2c(C)nc3sc(C)c(C)n3c2=O)CC1 | inactive: 83% |
| CSc1ccc(CNC(=O)c2cc3cc(S(=O)(=O)N4CCCCC4)ccc3n2C)cc1 | inactive: 95% |
| CCOC(=O)c1c(Nc2cc(C)cc(C)c2)nnc(-c2ccccc2)c1-c1ccccc1 | active: 32% |
| CCCCC(=O)OC1=C(C(=O)c2ccccc2)N(C)S(=O)(=O)c2ccccc21 | inactive: 104% |
| Cn1nc(-c2ccc(C(=O)Nc3cccc(C(F)(F)F)c3)cc2)c2ccccc2c1=O | inactive: 57% |
| CC(=O)NC1C(=O)N=C(SCC(=O)NC(C)c2ccccc2)NC1=O (stereo unspecified) | inactive: 75% |
| O=C(Nc1ccc(F)cc1F)c1cnn(-c2ccc(F)cc2)c1-n1cccc1 | inactive: 80% |
| CCOc1ccccc1NC(=O)CN1c2ccccc2S(=O)(=O)c2ccccc21 | active: 37% |
| COc1ccc(CNS(=O)(=O)c2cnc(N)nc2)cc1 | active: -2% |
| CCOc1ccc(NS(=O)(=O)c2ccc3[nH]cc(C(=O)NCc4ccccc4)c(=O)c3c2)cc1 | inactive: 79% |
| Cc1cccc(CNC(=O)c2ccc3c(c2)N(C)C(=O)C2CCCCN32)c1 (stereo unspecified) | active: 0% |
| COc1cccc2c1Oc1ncccc1N(C(=O)Nc1cccc(Cl)c1)C2 | inactive: 79% |
| COC(=O)C1=CN(CCCN2CCCC2=O)C=C(C(=O)OC)C1c1cccc(F)c1 | inactive: 74% |
| O=C(CCn1c(=O)c2cccn2c2ccccc21)Nc1ccc(F)cc1 | inactive: 50% |
| CCCCCNC(=O)c1ccc2c(c1)nc(C)n2-c1cccc(C)c1 | active: 0% |
| O=C(NCc1ccccc1Cl)C1COc2ccccc2O1 (stereo unspecified) | inactive: 98% |
| Cc1cc(C)n(-c2nnc(Nc3cc(Cl)ccc3C)c3ccccc23)n1 | inactive: 67% |
| Cc1ccc(C)c(NC(=O)Cn2c(=O)ccc3cc(S(=O)(=O)N4CCCC4)ccc32)c1 | inactive: 64% |

| SMILES | survival |
| --- | --- |
| O=C1C2=C(Nc3ccccc3SC2c2ccccc2C(F)(F)F)c2ccccc21 (stereo unspecified) | active: 24% |
| O=C(NCc1cccs1)c1ccc(CSc2nc3cccnc3n2Cc2ccccc2)cc1 | inactive: 103% |
| O=C(Nc1ccccc1N1CCN(c2ccccc2)CC1)c1ccccc1 | inactive: 110% |
| Cc1nc(-c2ccc(C)c(S(=O)(=O)N3CCC(C(=O)Nc4ccc(Cl)cc4)CC3)c2)no1 | inactive: 128% |
| Cc1ccccc1NC(=O)c1ccc(F)c(S(=O)(=O)N(C)C2CCCCC2)c1 | inactive: 86% |
| COc1ccc(NC(=O)c2sc3nc4c(cc3c2N)CCCCCC4)cc1OC | inactive: 53% |
| Cc1nn(C)c(C)c1S(=O)(=O)N(CC(=O)N1CCN(c2ccccc2)CC1)c1ccc(C(C)C)cc1 | inactive: 79% |
| CCOc1ccccc1NC(=O)C1CCN(S(=O)(=O)c2ccc3[nH]c4c(c3c2)CCCCC4)CC1 | inactive: 101% |
| CCOc1ccc(CCNC(=O)c2cccc(-n3c(C)nc4cccnc43)c2)cc1 | inactive: 90% |
| COc1ccc(-c2nnc3c4ccccc4c(-c4ccccc4)nn23)cc1 | inactive: 96% |
| O=C(Nc1ccccc1F)c1ccc(-c2ccccc2)s1 | inactive: 81% |
| c1ccc(CCn2nnnc2C(c2cccnc2)N2CCCCC2)cc1 (stereo unspecified) | inactive: 82% |
| O=C(NC1CCS(=O)(=O)C1)Sc1ccccc1 (stereo unspecified) | inactive: 96% |
| CCOC(=O)c1nnn(CC(=O)NC(=O)Nc2cccc(CC)c2)c1C(=O)OCC | inactive: 64% |
| CCN(CC)C(=O)c1sc2c(c1C)c(=O)n(-c1ccc(Cl)c(Cl)c1)c(=O)n2CC(=O)Nc1cccc(OC)c1 | inactive: 70% |
| O=C(COc1ccc(Cl)cc1)NCCc1csc(-c2ccc(F)cc2)n1 | inactive: 77% |
| CC1Cc2cc(S(=O)(=O)N(C)c3ccc(Br)cc3)ccc2N1C(=O)C1CC1 (stereo unspecified) | inactive: 94% |
| Fc1ccc(Cc2cn3cc(-c4ccc(Cl)cc4)nc3s2)cc1 | inactive: 78% |
| CCC1CCCCN1CCCNC(=O)c1cc2c(=O)n(CC)c3ccccc3c2s1 (stereo unspecified) | inactive: 114% |
| COc1ccc(NC(=O)C2CCCN(S(=O)(=O)c3cccs3)C2)cc1 (stereo unspecified) | inactive: 96% |
| COc1ccc(CNC(=O)C2CCN(S(=O)(=O)c3ccc(C)cc3)CC2)cc1 | active: 56% |
| O=c1[nH]c(O)c(C=NCCCn2ccnc2)c(=O)[nH]1 | inactive: 103% |
| CCN1CCN(C(c2ccccc2)c2c(O)cc(C)n(Cc3ccco3)c2=O)CC1 (stereo unspecified) | inactive: 94% |

| SMILES | survival |
| --- | --- |
| COc1cc2ccccc2cc1C(=O)Nc1ccc2oc(-c3ccccc3)nc2c1 | active: 8% |
| CCOc1ccccc1C(=O)N(Cc1cccs1)c1ccc(Cl)cc1 | inactive: 62% |
| Cc1ccc(Nc2cc(C(=O)NCc3cccs3)c3ccccc3n2)c(C)c1 | inactive: 72% |
| Cc1ccc(NC(=O)Cc2coc3c(C)c(C)ccc23)cc1Cl | inactive: 80% |
| CC1(C)CC(=O)C2=C(C1)Nc1ccccc1N1C(=O)c3ccccc3C21 (stereo unspecified) | inactive: 70% |
| Cc1ccc(NC(=O)c2ccc3[nH]c(C)cc(=O)c3c2)c(C)c1 | inactive: 85% |
| COc1ccc(Nc2ncc3c(n2)CCN(C(=O)OC(C)(C)C)C3)cc1 | inactive: 65% |
| COc1ccccc1CN1CCN(C2CCN(C(=O)NC(C)C)CC2)C(=O)C1=O | inactive: 94% |
| CC1CCN(S(=O)(=O)c2ccc3c(c2)N(CC(=O)N2CCN(c4ccccc4)CC2)C(=O)CO3)CC1 | inactive: 81% |
| COc1ccccc1C(=O)Nc1nc2nc(C)c(Cc3ccccc3)c(=O)n2[nH]1 | inactive: 111% |
| CCSc1nc(Cl)c2ccccc2n1 | inactive: 69% |
| CC(=O)c1ccc(NC(=O)Cn2ncc3c(C)n(Cc4ccc(F)cc4)c(C)c3c2=O)cc1 | active: 60% |
| CCN(CC)N=Nc1ccc(C(=O)O)cc1 | inactive: 77% |
| COc1cccc(Cn2c(CNS(=O)(=O)c3ccc4c(c3)CCCC4)nc3cccnc32)c1 | inactive: 87% |
| CCc1ccc2c(c1)-c1ccccc1S(=O)(=O)N2CC(=O)N1CCC(C)CC1 | inactive: 78% |
| CC(C)Cc1nnc(NC(=O)c2ccccc2)s1 | inactive: 76% |
| Cc1cc(O)c(-c2ccnc3cc(-c4ccccc4)nn23)cc1Cl | inactive: 114% |
| COc1cc2c(C(=O)N(C)c3cc(Cl)ccc3OC)cn(CC(C)C)c(=O)c2cc1OC | active: 48% |
| CCN(C(=O)Cn1c(=O)n(CC2CCC(C(=O)NC)CC2)c(=O)c2sccc21)c1ccccc1 (stereo unspecified) | inactive: 81% |
| Cc1nn(CCCC(=O)Nc2cccc(F)c2)c(=O)c2c1sc1ccccc12 | inactive: 54% |
| S=C(Nc1ccccc1)NC1CC2CCCC(C1)N2C1CC1 (stereo unspecified) | inactive: 77% |
| COc1ccc(NC(=O)CN2C(=O)CCc3cc(S(=O)(=O)N4CCOCC4)ccc32)cc1Cl | inactive: 86% |
